Source: PMC8630059
No constants are given. Whether binding was seen depends on the method and setting. Binding seen in cells or lysates may run through a third protein. Some binding calls cover weakened binding; strength is not graded here. One block for each molecule: values may come before it.

Sequences of proteins named here, by UniProt entry; tags and fusion partners are left off.
UniProt Q96EB6: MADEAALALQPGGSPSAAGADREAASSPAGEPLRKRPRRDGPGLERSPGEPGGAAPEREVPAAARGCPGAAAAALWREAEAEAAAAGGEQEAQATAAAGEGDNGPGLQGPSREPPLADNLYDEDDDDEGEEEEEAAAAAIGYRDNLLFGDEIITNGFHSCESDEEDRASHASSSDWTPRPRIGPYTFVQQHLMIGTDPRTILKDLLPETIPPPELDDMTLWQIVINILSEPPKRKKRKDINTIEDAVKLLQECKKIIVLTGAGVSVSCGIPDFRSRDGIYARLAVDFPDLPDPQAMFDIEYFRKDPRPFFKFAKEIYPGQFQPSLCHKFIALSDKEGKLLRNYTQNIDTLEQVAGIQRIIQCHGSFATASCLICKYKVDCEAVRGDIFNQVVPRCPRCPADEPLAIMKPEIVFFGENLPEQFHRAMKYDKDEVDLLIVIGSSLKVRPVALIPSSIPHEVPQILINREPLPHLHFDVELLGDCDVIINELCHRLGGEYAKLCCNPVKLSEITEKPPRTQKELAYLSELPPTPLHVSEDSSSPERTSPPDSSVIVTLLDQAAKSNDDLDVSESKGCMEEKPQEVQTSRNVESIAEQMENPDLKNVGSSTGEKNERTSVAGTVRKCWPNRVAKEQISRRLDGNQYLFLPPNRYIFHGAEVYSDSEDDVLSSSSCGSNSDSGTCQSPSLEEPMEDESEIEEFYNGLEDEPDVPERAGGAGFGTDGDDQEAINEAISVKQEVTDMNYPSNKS
UniProt Q13619: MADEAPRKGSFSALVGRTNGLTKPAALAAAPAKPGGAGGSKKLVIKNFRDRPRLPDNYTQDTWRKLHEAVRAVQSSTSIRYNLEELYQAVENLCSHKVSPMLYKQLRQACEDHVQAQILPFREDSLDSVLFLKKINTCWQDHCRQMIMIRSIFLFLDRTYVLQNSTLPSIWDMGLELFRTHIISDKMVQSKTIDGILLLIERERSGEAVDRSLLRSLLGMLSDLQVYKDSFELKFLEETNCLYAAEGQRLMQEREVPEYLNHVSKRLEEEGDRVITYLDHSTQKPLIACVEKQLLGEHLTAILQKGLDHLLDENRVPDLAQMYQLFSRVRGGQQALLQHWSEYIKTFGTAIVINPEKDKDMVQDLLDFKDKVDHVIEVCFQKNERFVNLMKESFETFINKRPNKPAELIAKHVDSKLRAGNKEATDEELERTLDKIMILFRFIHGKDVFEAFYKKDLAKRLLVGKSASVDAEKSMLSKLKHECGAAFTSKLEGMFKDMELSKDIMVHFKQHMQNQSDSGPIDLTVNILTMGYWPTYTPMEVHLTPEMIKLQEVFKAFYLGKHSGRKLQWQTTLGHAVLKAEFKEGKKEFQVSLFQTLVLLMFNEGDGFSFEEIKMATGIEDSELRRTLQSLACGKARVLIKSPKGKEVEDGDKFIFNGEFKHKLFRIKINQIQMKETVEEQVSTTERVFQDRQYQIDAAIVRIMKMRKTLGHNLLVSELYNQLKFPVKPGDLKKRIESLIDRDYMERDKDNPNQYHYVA
UniProt Q16531: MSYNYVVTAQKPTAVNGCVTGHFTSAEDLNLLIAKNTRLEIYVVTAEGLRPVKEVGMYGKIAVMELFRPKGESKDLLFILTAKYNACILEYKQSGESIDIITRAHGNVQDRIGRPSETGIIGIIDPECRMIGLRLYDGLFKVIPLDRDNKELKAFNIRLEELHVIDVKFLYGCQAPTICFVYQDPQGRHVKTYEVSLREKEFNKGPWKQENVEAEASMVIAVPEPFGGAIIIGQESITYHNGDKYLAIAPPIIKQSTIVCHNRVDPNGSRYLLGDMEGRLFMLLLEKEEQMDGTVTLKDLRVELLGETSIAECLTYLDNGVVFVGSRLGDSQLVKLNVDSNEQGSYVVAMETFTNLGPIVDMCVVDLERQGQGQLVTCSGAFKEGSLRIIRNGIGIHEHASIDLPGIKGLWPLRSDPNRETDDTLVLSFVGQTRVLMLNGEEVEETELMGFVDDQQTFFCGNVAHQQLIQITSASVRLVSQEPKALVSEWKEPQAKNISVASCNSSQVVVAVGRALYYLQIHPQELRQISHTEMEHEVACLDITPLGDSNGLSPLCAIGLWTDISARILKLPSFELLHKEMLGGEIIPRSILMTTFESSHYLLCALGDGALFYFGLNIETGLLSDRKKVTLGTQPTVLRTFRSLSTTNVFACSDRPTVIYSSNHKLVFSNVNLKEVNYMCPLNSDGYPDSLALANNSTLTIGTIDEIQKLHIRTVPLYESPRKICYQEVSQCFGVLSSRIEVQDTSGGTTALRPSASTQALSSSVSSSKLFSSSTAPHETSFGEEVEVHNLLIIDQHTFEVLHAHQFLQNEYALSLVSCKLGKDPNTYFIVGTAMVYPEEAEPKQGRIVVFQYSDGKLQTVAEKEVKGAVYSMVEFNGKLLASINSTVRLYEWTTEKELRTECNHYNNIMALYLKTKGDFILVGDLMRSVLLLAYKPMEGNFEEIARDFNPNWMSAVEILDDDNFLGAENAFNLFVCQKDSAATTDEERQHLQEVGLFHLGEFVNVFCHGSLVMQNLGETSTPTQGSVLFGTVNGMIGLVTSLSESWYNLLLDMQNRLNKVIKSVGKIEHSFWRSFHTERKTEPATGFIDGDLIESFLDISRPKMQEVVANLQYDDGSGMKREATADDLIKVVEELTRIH
UniProt O75530: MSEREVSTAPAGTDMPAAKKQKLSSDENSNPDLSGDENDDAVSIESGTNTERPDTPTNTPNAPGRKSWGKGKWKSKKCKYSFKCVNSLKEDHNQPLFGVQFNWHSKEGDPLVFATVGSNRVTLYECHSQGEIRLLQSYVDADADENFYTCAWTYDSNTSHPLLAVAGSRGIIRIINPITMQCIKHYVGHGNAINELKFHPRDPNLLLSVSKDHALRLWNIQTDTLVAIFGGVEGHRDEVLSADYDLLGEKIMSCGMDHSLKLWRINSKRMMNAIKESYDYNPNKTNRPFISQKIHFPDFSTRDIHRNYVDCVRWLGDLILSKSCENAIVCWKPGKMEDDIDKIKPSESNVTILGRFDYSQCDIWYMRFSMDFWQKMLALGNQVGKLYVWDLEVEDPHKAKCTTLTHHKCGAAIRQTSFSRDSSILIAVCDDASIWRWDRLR
UniProt Q92769: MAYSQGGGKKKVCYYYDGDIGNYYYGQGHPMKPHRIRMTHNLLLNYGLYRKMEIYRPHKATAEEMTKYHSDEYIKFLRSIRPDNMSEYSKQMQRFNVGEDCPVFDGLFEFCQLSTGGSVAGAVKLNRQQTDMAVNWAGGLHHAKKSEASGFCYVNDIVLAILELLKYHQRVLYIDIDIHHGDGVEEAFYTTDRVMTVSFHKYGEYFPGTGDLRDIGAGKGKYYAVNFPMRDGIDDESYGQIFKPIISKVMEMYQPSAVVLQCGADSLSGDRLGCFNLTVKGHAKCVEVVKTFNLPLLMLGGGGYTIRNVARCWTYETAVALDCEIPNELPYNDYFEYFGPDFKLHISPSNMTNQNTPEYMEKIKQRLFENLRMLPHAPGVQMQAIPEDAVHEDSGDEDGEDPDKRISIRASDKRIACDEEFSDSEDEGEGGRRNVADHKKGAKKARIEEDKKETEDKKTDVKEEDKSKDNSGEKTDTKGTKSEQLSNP
UniProt Q13620: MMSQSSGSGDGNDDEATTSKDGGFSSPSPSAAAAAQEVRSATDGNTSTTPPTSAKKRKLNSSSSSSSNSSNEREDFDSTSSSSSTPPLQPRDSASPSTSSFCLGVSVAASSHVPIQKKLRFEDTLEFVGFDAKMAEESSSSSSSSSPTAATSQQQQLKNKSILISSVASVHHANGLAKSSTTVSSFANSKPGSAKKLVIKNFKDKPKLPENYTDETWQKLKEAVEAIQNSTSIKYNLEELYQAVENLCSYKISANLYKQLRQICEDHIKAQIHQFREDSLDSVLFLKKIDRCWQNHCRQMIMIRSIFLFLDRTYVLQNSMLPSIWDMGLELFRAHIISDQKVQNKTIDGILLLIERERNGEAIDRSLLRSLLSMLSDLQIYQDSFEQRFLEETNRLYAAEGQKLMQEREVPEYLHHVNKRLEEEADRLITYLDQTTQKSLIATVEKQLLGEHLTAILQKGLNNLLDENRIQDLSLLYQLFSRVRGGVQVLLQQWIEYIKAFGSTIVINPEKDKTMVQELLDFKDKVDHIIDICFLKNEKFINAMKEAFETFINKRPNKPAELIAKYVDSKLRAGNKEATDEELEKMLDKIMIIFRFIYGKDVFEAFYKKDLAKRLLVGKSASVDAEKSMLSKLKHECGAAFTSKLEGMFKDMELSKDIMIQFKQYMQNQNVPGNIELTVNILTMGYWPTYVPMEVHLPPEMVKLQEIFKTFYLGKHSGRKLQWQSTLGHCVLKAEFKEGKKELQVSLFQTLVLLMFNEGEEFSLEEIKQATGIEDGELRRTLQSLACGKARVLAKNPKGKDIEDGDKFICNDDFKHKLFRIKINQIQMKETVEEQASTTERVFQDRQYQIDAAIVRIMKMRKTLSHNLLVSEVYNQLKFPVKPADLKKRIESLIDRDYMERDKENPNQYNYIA
UniProt Q13547: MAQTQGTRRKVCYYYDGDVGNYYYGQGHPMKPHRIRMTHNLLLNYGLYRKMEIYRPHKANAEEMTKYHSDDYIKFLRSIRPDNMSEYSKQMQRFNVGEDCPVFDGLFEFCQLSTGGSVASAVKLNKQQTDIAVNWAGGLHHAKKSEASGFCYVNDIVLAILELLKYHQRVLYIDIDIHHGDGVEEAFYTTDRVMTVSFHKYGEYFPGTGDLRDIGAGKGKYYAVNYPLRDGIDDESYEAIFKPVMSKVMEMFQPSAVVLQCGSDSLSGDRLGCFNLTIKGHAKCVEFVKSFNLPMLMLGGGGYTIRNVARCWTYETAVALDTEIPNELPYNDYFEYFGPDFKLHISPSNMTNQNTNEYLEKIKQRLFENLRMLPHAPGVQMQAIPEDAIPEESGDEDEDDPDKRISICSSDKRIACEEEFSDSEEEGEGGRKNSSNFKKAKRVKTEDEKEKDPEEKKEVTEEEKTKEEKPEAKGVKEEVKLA

How the values were obtained:
[1] = target: SIRT1 (endogenous) (human (endogenous in PANC-1, AsPC-1, BxPC-3, MIA PaCa-2)) (UniProt Q96EB6); experiment: co-IP; endogenous proteins; extracts of PANC-1, AsPC-1, BxPC-3 and MIA PaCa-2 cells (50 mM Tris-HCl pH 7.4, 150 mM NaCl, 1 mM EDTA, 0.5% NP-40, 0.25% sodium deoxycholate); IP with anti-SIRT1 and blot for the indicated proteins, or the reverse; 4 °C overnight
[2] = target: FLAG-tagged SIRT1 (human) (UniProt Q96EB6); experiment: co-IP; western blot of the fractions purified on anti-FLAG affinity columns from PANC-1 cells stably expressing FLAG-SIRT1
GST-fused SIRT1 (human) = GST-fused SIRT1 (human) (UniProt Q96EB6); experiment: pull-down; about 10 μg GST fusion protein from E. coli BL21 mixed with 5-8 μl in vitro-transcribed/translated product in 0.8% BSA in PBS, room temperature 30 min; Glutathione Sepharose 4B, 4 °C 2 h; western blot; only the target purified

Molecule: CUL4A (endogenous) (from UniProt Q13619 1-759)
binding [1]: no binding | binding [2]: no binding

Molecule: DDB1 (endogenous) (from UniProt Q16531 1-1140)
binding [1]: binds | binding [2]: binds

Molecule: EED (from UniProt O75530 1-441)
binding [2]: binds

Molecule: HDAC2 (from UniProt Q92769 1-488) (enzyme)
binding [2]: binds

The remaining lines, values ahead:

binding [1]: binds | binding [2]: binds
Molecule: Cullin 4B (CUL4B) (endogenous) (from UniProt Q13620 1-913)

binding [2]: binds
Molecule: HDAC1 (from UniProt Q13547 1-482) (enzyme)

binding (GST-fused SIRT1 (human)): binds
Molecule: in vitro-transcribed/translated CUL4B (from UniProt Q13620 1-913)

binding (GST-fused SIRT1 (human)): binds
Molecule: in vitro-transcribed/translated DDB1 (from UniProt Q16531 1-1140)

binding [2]: binds
B1: SAP30 (protein, UniProt O75446 1-220)
chain: MNGFTPDEMSRGGDAAAAVAAVVAAAAAAASAGNGTGAGTGAEVPGAGAVSAAGPPGAAGPGPGQLCCLREDGERCGRAAGNASFSKRIQKSISQKKVKIELDKSARHLYICDYHKNLIQSVRNRRKRKGSDDDGGDSPVQDIDTPEVDLYQLQVNTLRRYKRHFKLPTRPGLNKAQLVEIVGCHFRSIPVNEKDTLTYFIYSVKNDKNKSDLKVDSGVH
